# Source: article PMC4336329 (PLoS ONE, 2015)
# Screen size: about 310,000 compounds; about 2,200 (0.71%) showed an effect of 50% or more. The effect is printed as a negative number. The list shows a part of the results.
# Target: human ether-à-go-go-related gene (hERG) potassium channel (human, UniProt Q12809)
# Assay: primary screen, population patch clamp on CHO cells stably expressing hERG
# human ether-à-go-go-related gene (hERG) potassium channel, sequence (Q12809 whole entry, looked up): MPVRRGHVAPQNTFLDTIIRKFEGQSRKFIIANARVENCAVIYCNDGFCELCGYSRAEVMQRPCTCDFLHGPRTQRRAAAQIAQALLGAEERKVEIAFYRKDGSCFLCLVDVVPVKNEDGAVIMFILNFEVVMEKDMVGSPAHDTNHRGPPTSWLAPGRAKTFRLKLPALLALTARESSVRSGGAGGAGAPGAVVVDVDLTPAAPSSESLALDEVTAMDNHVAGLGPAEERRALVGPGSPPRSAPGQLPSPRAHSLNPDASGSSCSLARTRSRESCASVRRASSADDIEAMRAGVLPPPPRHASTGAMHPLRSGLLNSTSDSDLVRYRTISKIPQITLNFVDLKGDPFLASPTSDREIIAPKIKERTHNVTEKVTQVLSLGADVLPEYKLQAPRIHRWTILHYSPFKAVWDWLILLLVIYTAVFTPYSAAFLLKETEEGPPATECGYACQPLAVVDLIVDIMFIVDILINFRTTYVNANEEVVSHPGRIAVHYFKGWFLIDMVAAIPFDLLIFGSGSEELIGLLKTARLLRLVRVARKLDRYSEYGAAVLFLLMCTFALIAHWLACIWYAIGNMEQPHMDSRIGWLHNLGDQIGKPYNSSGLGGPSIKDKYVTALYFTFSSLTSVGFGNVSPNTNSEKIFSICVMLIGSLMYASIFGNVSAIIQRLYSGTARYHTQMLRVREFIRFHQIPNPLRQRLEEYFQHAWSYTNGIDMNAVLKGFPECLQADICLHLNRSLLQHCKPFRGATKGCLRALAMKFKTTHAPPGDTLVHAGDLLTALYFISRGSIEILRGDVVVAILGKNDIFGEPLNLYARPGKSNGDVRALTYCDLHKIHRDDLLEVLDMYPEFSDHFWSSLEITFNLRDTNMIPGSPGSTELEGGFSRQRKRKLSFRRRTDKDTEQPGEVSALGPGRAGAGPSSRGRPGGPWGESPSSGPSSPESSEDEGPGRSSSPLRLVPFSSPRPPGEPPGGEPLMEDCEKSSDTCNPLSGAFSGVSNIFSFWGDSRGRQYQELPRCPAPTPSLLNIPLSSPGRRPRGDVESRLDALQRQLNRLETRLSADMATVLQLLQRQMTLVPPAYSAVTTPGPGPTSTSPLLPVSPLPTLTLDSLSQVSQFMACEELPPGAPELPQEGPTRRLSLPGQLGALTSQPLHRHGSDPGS
row,SMILES,"hERG current change (%, negative = inhibition) at 1uM"
1,COc1ccc(C(O)CNC(C)C)c(F)c1OC (stereo not shown),7.53%
2,CC(Oc1ccccc1)C(=O)NCc1cccnc1 (stereo not shown),18.5%
3,COc1ccc(-n2c(C)cc(/C=C(\C#N)C(=O)NCc3ccco3)c2C)cc1,5.62%
4,O=C(C1CC1)N1CCN(c2ccc([N+](=O)[O-])cc2)CC1,-31.4%
5,Cc1cc(-c2ccc(C(C)C)c(S(=O)(=O)N3CCC(C)CC3)c2)on1,16.7%
6,CCCCc1cc(=O)oc2cc(C)cc(OC(C)C(=O)NCc3cccnc3)c12 (stereo not shown),5.33%
7,Cc1ccc(C(N)=O)cc1S(=O)(=O)Nc1cccc(C)c1C,-0.699%
8,Cc1nc(C(=O)N2CCC(n3nccc3NC(=O)Nc3ccccc3Cl)CC2)cs1,16.7%
9,CC(C)C(=O)Nc1ccc(N2CCCC2)cc1,13.3%
10,COc1ccc(-c2cc(C(=O)N3CCN(c4ncccn4)CC3)c3ccccc3n2)cc1,-0.158%
11,COc1ccc(OCC(=O)N2CCN(C(=O)c3cccc(F)c3)CC2)cc1,6.42%
12,CCN(CC)CCNCc1cc(Cl)ccc1OCc1ccccc1F.Cl,-4.89%
13,CCC(CC)NC(=O)CO/N=C/c1ccc(Cl)cc1Cl,18.7%
14,Cc1ccc(N(Cc2ccccc2)C(=O)c2ccc(Cl)c(S(=O)(=O)N3CCOCC3)c2)cc1,-25.2%
15,CN(C)CCC(=O)N1c2ccccc2Sc2ccc(Cl)cc21.Cl,6.15%
16,CCCCOc1ccc(C(=O)NCC(=O)N2CC(C)CC(C)C2)cc1 (stereo not shown),10.2%
17,Cc1ccc(C(=O)C(C)OC(=O)Cn2[nH]c(=O)c3ccccc3c2=O)cc1C (stereo not shown),3.63%
18,COc1ccc(N=C2NC(=O)/C(=C/c3ccco3)S2)cc1,21.7%
19,CC1CCC(C(C)C)C(OC(=O)COC(=O)c2ccc(=O)[nH]c2)C1 (stereo not shown),1.61%
20,Nc1nnc(-c2cn(-c3ccccc3)nc2-c2ccc(Cl)cc2)o1,14.8%
21,CCNc1nc(=S)nc(NC(C)C)[nH]1,14%
22,C=Cn1ccnc1CC(O)c1ccc(OC)cc1 (stereo not shown),11.8%
23,CC1CCN(Cc2c(C(=O)N/N=C/c3ccccc3O)nnn2-c2nonc2N)CC1,13.6%
24,CCCn1c2ccccc2c2nnc(SCC(=O)OCC)nc21,4.96%
25,COc1cc(/C=N/N=C2/NC(=O)C(CC(=O)O)S2)ccc1OCc1ccc(Cl)cc1 (stereo not shown),9.17%
